# Measured values reported in the supplement of paper PMC8728848.
# The list shows a part of the results.
# B1: CVN-E41G (protein)
# chain: MHHHHHHENLYFQSGNFSQACYNSAIQGSVLTSTCIRTNGGYNTSSIDLNSVIANVDGSLKWQGSNFIETCRNTQLAGSSELAAECKTRAQQFVSTKINLDDHIAAIDGTLKYE
# Tests used:
# Assay in all cases: glycan array binding signal (z-score within array); higher = stronger binding
# Details in all cases: glycan notation: IUPAC condensed, linker removed; mutation: E41A
# [1] = target: Man(a1-2)Man(a1-3)[Man(a1-2)Man(a1-6)]Man
# In short: (§1)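 Glycan array binding is given as a within-array Z-score, which can be read as non-binding when negative. The arrays, 3228 of them, came from the Consortium for Functional Glycomics database and were retained only where the protein sequence was available. Z-scores were averaged across arrays of the same protein sequence at different concentrations or buffers and across linkers.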
# [2] = target: Man(a1-2)Man(a1-3)[Man(a1-2)Man(a1-6)]Man(a1-6)[Man(a1-2)Man(a1-2)Man(a1-3)]Man
# In short: as §1
# [3] = target: Man(a1-2)Man(a1-3)[Man(a1-2)Man(a1-6)]Man(a1-6)[Man(a1-2)Man(a1-2)Man(a1-3)]Man(b1-4)GlcNAc(b1-4)GlcNAc
# In short: as §1
# [4] = target: Man(a1-2)Man(a1-3)[Man(a1-6)]Man(a1-6)[Man(a1-2)Man(a1-3)]Man(b1-4)GlcNAc(b1-4)GlcNAc
# In short: as §1
# [5] = target: Man(a1-2)Man(a1-6)[Man(a1-3)]Man(a1-6)[Man(a1-2)Man(a1-2)Man(a1-3)]Man
# In short: as §1
# [6] = target: Man(a1-2)Man(a1-6)[Man(a1-3)]Man(a1-6)[Man(a1-2)Man(a1-2)Man(a1-3)]Man(b1-4)GlcNAc(b1-4)GlcNAc
# In short: as §1
# [7] = target: Man(a1-3)[Man(a1-6)]Man
# In short: as §1
# [8] = target: Man(a1-3)[Man(a1-6)]Man(a1-6)[Man(a1-2)Man(a1-3)]Man(b1-4)GlcNAc(b1-4)GlcNAc
# In short: as §1
# [9] = target: Man(a1-3)[Man(a1-6)]Man(a1-6)[Man(a1-3)]Man
# In short: as §1
# [10] = target: Man(a1-3)[Man(a1-6)]Man(a1-6)[Man(a1-3)]Man(b1-4)GlcNAc(b1-4)GlcNAc
# In short: as §1
# [11] = target: Man(a1-3)[Man(a1-6)]Man(b1-4)GlcNAc(b1-4)GlcNAc
# In short: as §1
# [12] = target: Man(a1-3)[Man(a1-6)]Man(b1-4)GlcNAc(b1-4)[Fuc(a1-6)]GlcNAc
# In short: as §1
# [13] = target: Man(a1-6)Man
# In short: as §1
# [14] = target: Man(b1-4)GlcNAc
# In short: as §1
# [15] = target: MurNAc(b1-4)GlcNAc
# In short: as §1
# [16] = target: Neu5Ac(a2-3)Gal
# In short: as §1
# [17] = target: Neu5Ac(a2-3)Gal(b1-3)GalNAc
# In short: as §1
# [18] = target: Neu5Ac(a2-3)Gal(b1-3)GalNAc(b1-3)Gal(a1-4)Gal(b1-4)Glc
# In short: as §1
# [19] = target: Neu5Ac(a2-3)Gal(b1-3)GalNAc(b1-4)Gal(b1-4)Glc
# In short: as §1
# [20] = target: Neu5Ac(a2-3)Gal(b1-3)GalNAc(b1-4)[Neu5Ac(a2-3)]Gal(b1-4)Glc
# In short: as §1
# [21] = target: Neu5Ac(a2-3)Gal(b1-3)GalNAc(b1-4)[Neu5Ac(a2-8)Neu5Ac(a2-3)]Gal(b1-4)Glc
# In short: as §1
# [22] = target: Neu5Ac(a2-3)Gal(b1-3)GalNAc6S
# In short: as §1
# [23] = target: Neu5Ac(a2-3)Gal(b1-3)GlcNAc
# In short: as §1
# [24] = target: Neu5Ac(a2-3)Gal(b1-3)GlcNAc(b1-2)Man
# In short: as §1
# [25] = target: Neu5Ac(a2-3)Gal(b1-3)GlcNAc(b1-2)Man(a1-3)[GlcNAc(b1-4)][Neu5Ac(a2-3)Gal(b1-3)GlcNAc(b1-2)Man(a1-6)]Man(b1-4)GlcNAc(b1-4)GlcNAc
# In short: as §1
# [26] = target: Neu5Ac(a2-3)Gal(b1-3)GlcNAc(b1-2)Man(a1-3)[Neu5Ac(a2-3)Gal(b1-3)GlcNAc(b1-2)Man(a1-6)]Man(b1-4)GlcNAc(b1-4)GlcNAc
# In short: as §1
# [27] = target: Neu5Ac(a2-3)Gal(b1-3)GlcNAc(b1-2)[Neu5Ac(a2-3)Gal(b1-3)GlcNAc(b1-4)]Man(a1-6)[Neu5Ac(a2-3)Gal(b1-3)GlcNAc(b1-2)Man(a1-3)]Man(b1-4)GlcNAc(b1-4)GlcNAc
# In short: as §1
# [28] = target: Neu5Ac(a2-3)Gal(b1-3)GlcNAc(b1-3)Gal(b1-3)GlcNAc
# In short: as §1
# [29] = target: Neu5Ac(a2-3)Gal(b1-3)GlcNAc(b1-3)Gal(b1-4)GlcNAc
# In short: as §1
# [30] = target: Neu5Ac(a2-3)Gal(b1-3)GlcNAc(b1-3)GalNAc
# In short: as §1
# [31] = target: Neu5Ac(a2-3)Gal(b1-3)GlcNAc(b1-6)GalNAc
# In short: as §1
# [32] = target: Neu5Ac(a2-3)Gal(b1-3)GlcNAc6S
# In short: as §1
# [33] = target: Neu5Ac(a2-3)Gal(b1-3)[Fuc(a1-4)]GlcNAc
# In short: as §1
# [34] = target: Neu5Ac(a2-3)Gal(b1-3)[Fuc(a1-4)]GlcNAc(b1-3)Gal(b1-3)[Fuc(a1-4)]GlcNAc
# In short: as §1
# [35] = target: Neu5Ac(a2-3)Gal(b1-3)[Fuc(a1-4)]GlcNAc(b1-3)Gal(b1-4)[Fuc(a1-3)]GlcNAc
# In short: as §1
# [36] = target: Neu5Ac(a2-3)Gal(b1-3)[GlcNAc(b1-6)]GalNAc
# In short: as §1
# [37] = target: Neu5Ac(a2-3)Gal(b1-3)[Neu5Ac(a2-6)]GalNAc
# In short: as §1
# [38] = target: Neu5Ac(a2-3)Gal(b1-3)[Neu5Ac(a2-6)]GlcNAc(b1-3)[Fuc(a1-3)[Gal(b1-4)]GlcNAc(b1-6)]Gal(b1-4)Glc
# In short: as §1
# [39] = target: Neu5Ac(a2-3)Gal(b1-3)]Neu5Ac(a2-3)Gal(b1-4)]GlcNAc
# In short: as §1
# [40] = target: Neu5Ac(a2-3)Gal(b1-4)Glc
# In short: as §1
# [41] = target: Neu5Ac(a2-3)Gal(b1-4)GlcNAc
# In short: as §1
# [42] = target: Neu5Ac(a2-3)Gal(b1-4)GlcNAc(b1-2)Man
# In short: as §1
# [43] = target: Neu5Ac(a2-3)Gal(b1-4)GlcNAc(b1-2)Man(a1-3)[GlcNAc(b1-4)][Neu5Ac(a2-3)Gal(b1-4)GlcNAc(b1-2)Man(a1-6)]Man(b1-4)GlcNAc(b1-4)GlcNAc
# In short: as §1
# [44] = target: Neu5Ac(a2-3)Gal(b1-4)GlcNAc(b1-2)Man(a1-3)[Neu5Ac(a2-3)Gal(b1-4)GlcNAc(b1-2)Man(a1-6)]Man(b1-4)GlcNAc(b1-4)GlcNAc
# In short: as §1
# [45] = target: Neu5Ac(a2-3)Gal(b1-4)GlcNAc(b1-2)Man(a1-3)[Neu5Ac(a2-3)Gal(b1-4)GlcNAc(b1-2)Man(a1-6)]Man(b1-4)GlcNAc(b1-4)[Fuc(a1-6)]GlcNAc
# In short: as §1
binder,measurement,setting,value
B1,glycan array binding signal (z-score),[1],8.35
same,glycan array binding signal (z-score),[2],10.5
same,glycan array binding signal (z-score),[3],0.418
same,glycan array binding signal (z-score),[4],5.81
same,glycan array binding signal (z-score),[5],9.42
same,glycan array binding signal (z-score),[6],6.36
same,glycan array binding signal (z-score),[7],-0.056
same,glycan array binding signal (z-score),[8],3.98
same,glycan array binding signal (z-score),[9],-0.066
same,glycan array binding signal (z-score),[10],1.19
same,glycan array binding signal (z-score),[11],-0.182
same,glycan array binding signal (z-score),[12],0.266
same,glycan array binding signal (z-score),[13],-0.081
same,glycan array binding signal (z-score),[14],-0.227
same,glycan array binding signal (z-score),[15],-0.239
same,glycan array binding signal (z-score),[16],-0.233
same,glycan array binding signal (z-score),[17],-0.172
same,glycan array binding signal (z-score),[18],-0.197
same,glycan array binding signal (z-score),[19],-0.089
same,glycan array binding signal (z-score),[20],0.09
same,glycan array binding signal (z-score),[21],-0.2
same,glycan array binding signal (z-score),[22],-0.237
same,glycan array binding signal (z-score),[23],-0.202
same,glycan array binding signal (z-score),[24],-0.212
same,glycan array binding signal (z-score),[25],0.053
same,glycan array binding signal (z-score),[26],-0.062
same,glycan array binding signal (z-score),[27],0.509
same,glycan array binding signal (z-score),[28],-0.222
same,glycan array binding signal (z-score),[29],-0.181
same,glycan array binding signal (z-score),[30],-0.212
same,glycan array binding signal (z-score),[31],0.085
same,glycan array binding signal (z-score),[32],0.005
same,glycan array binding signal (z-score),[33],-0.222
same,glycan array binding signal (z-score),[34],-0.227
same,glycan array binding signal (z-score),[35],0.264
same,glycan array binding signal (z-score),[36],-0.178
same,glycan array binding signal (z-score),[37],-0.179
same,glycan array binding signal (z-score),[38],-0.094
same,glycan array binding signal (z-score),[39],-0.239
same,glycan array binding signal (z-score),[40],-0.158
same,glycan array binding signal (z-score),[41],-0.212
same,glycan array binding signal (z-score),[42],0.044
same,glycan array binding signal (z-score),[43],-0.212
same,glycan array binding signal (z-score),[44],-0.223
same,glycan array binding signal (z-score),[45],-0.205
